Experimental findings from the supplement of paper PMC11417369 are described below.

This is one part of the list.

For this test, the system named is PfHDP1 homeodomain (GST-tagged). The experiment in a line: gcPBM binding intensity (ln(normalized median fluorescence intensity)); higher = stronger DNA binding. Summed up:
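Plasmodium falciparum DNA-binding domains carrying a GST tag were expressed in E. coli and applied for 1 h, at about 25 μg on average, to an Agilent 4 × 180k array. The array held primer-extended double-stranded 36-bp intergenic genomic probes together with negative controls, and binding took place in 1× PBS with 1% milk, 0.2 mg/ml BSA, 0.5% salmon testes DNA and 0.03% Triton X-100. An Alexa488 anti-GST antibody detected bound protein, and the array was scanned at 488 nm. Binding intensity is taken as the highest Masliner-normalised natural-log median intensity across replicate spots of either probe orientation.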
On to “TTTTTATCAAATAAATGTACACATATTAAATGAAAT [XGTACX_site555]”, for which the “gcPBM binding intensity (ln)” value came out at 6.6.

Take “TTTGTAAGAAATAAATGTACAAAAATTAATTTTTAT [XGTACX_site8983]”: the “gcPBM binding intensity (ln)” value came out at 6.21. As for “GAAATTAAATGACATACACACTATATTATAGATTTT [CACACA_site7468]”, the figure is 6.23; as for “ATATTTAAAAAATGATGTACAAAAATGTAGTCACAC [XGTACX_site6208]”, 6.43. As for “TATTTTAATGAATTCACACATATAATTTATTTTATA [CACACA_site4538]”, the figure is 6.41; as for GACATAAAATTCAAAGTGCATAAATAAAATAAACCC, 8.73; as for “TTTTTTTTTTTTTTCTGTACAAATTAAATCTACATA [XGTACX_site8285]”, 6.65. As for “AAAATACATAGACACACACACACACGGATATAAATA [CACACA_site7643]”, the figure is 6.78. Turning to “AATATATATTAATAAAGTACAGGAAATATTTTTACC [XGTACX_site7052]”, the “gcPBM binding intensity (ln)” value was 7.13. For “TACTAAAAAATATAAACACACATATATTTTACATAT [CACACA_site2042]” the value was 6.41; for “TTTAATTTGATAGACACATGCACACGTGCAATACTT [TGCATGCA_site777]”, 10.9. For “ATATATATATATAAATGTACAGATATATTTTTTATT [XGTACX_site5445]” the value was 8.96; for “ATAGTATCTGGTAGCTGTACGAGTCGTAGAGTGTAA [XGTACX_site4936]”, 6.84. Consider “ATATAAAACTAATTTCTTTTTCTCCTTTTATTTTGT [CACACA_negctrl_site1251]”, for which the “gcPBM binding intensity (ln)” value is 6.05.

As to “TTAATGTTATATGTGTGTACATATAAGTTTAGTAAA [XGTACX_site4651]”, the “gcPBM binding intensity (ln)” value was 6.53. For “TTTTTTTTTTCATTAACACACATAAATATATATATA [CACACA_site5759]”, the “gcPBM binding intensity (ln)” value worked out at 7.99.

For the sequence “TGATTAATAATTTTCTTCATACATTAAACATCTTTT [TGCATGCA_negctrl_site342]”, the “gcPBM binding intensity (ln)” value amounted to 6.07. As for “CACTAATAGTGGATTACACACATATATCTGTATTTA [CACACA_site5403]”, the figure is 6.25; as for “TATGTATATTTTAATTGTACGTGTATGGTTGTAAAT [XGTACX_site8738]”, 6.88; as for “GAGAAAAATAAATACACACACATAAATAAATACATA [CACACA_site5102]”, 6.81. “CATGAATATTTATACATGCACACTAAAATAAAGAAT [CACACA_site2412]”: the “gcPBM binding intensity (ln)” value came to 7.78. For “GAGGGTATAATAAAAGCACACACAAAGATATAAATA [CACACA_site9087]” the value was 6.9; for “GAAAATATTACATACACGCACACATTAATATATTTA [CACACA_site2604]”, 7.15; for “ACATTTTGTAAAGAATGTACATATATATATATATTC [XGTACX_site8004]”, 6.56. As for “TATATATATATATACACACACACACCCCAAAGCGTA [CACACA_site64]”, the figure is 9.26; as for “AAAAAATGCGACATGTGTACACATATATATATATAT [XGTACX_site1679]”, 9.26. As for CAGTAGTTTTTATGGGTGCAAAACATATATATAACA, the figure is 9.47; as for “ATATATATATCAAAATGTACAAAAATAGAATTTAAA [XGTACX_site8292]”, 7.58. As to “TACACCCACCAACACACACACACACTAATAAAAAAA [CACACA_site8060]”, the “gcPBM binding intensity (ln)” value came out at 7.1. As to “AAAATTAAAATATCACGTACGAAGAAAAAATTAAGA [XGTACX_site6437]”, the “gcPBM binding intensity (ln)” value was determined as 6.43. As for “CCTTTCCTAGCACATGCACACAAAAAAAAAAAAAAA [CACACA_site8396]”, the figure is 8.87. As for “AATACATATGGGTGTACACATTATATATATATATAT [CACACA_site4601]”, the figure is 9.3; as for “AAACGGCTATTAAAATGTACATGTAAATATATTAAA [XGTACX_site918]”, 6.66.

In the case of “ATCTTTTTACTTAATACACACACACCCAAAAAAAAA [CACACA_site8221]”, the “gcPBM binding intensity (ln)” value amounted to 7.33. For “AAATTTTTTATTAGTAGTACGCATAAATATATGTAT [XGTACX_site1934]” the value was 6.55.

Turning to “AAAAATTCTTCCCAAGCATGCGCGCGTAAAATATTT [TGCATGCA_site77]”, the “gcPBM binding intensity (ln)” value came to 6.74. For “AAAAAAAAAAGAAAAGGTACACAGAATATATATATA [XGTACX_site6914]” the value was 8.7; for “AAAAAAATAAGACACACACACAAAAAAATAAAAATA [CACACA_site6357]”, 6.88; for “ATTATGAATTTTAATTGTACATTATTATAGAATGTA [XGTACX_site619]”, 6.22. In the case of “AATAATTCTTAAAGGTGTACAATATGTATATAAGAA [XGTACX_site595]”, the “gcPBM binding intensity (ln)” value worked out at 7.29. As for “AGTTATTTTTATATTTCACACACATATACTTTTACA [CACACA_site9357]”, the figure is 6.73; as for “AATAAATAGTAGTAGGTGCTACTATATTATATATAT [GTGCAC_site9452]”, 6.85. For “TATGTAATAATAAACGGTACACTATATTGTATGAAA [XGTACX_site4648]” the value was 6.79; for “GCATATGATGAGCATATAATCATAAGAAAAAAAAAA [CACACA_negctrl_site701]”, 7.24.
